T1: RBFOX1 RRM RbFoxmut (Fox-RRM*) (Homo sapiens, UniProt Q9NWB1 109-208, R118D;E147R;N151S;E152T)
T1 sequence: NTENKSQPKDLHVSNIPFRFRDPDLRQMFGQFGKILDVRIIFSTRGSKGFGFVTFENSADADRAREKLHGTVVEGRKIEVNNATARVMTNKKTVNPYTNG

B1: UCAAGGC (DNA:RNA)
RNA: GGGAGACCGGAAUUCAGAUUGUCCUCAAGGCUUAAAUCCCGUCGUAGCCACCA
DNA 1: CAATCTGAATTCCGGTCTCCC
DNA 2: TGGTGGCTACGACGGGATT
B2: CACAAUG (DNA:RNA)
RNA: B1 RNA with U25C, C26A, A27C, G29A, G30U, C31G
DNA 1: CAATCTGAATTCCGGTCTCCC
DNA 2: TGGTGGCTACGACGGGATT
B3: CGGGUUC (DNA:RNA)
RNA: B1 RNA with U25C, C26G, A27G, A28G, G29U, G30U
DNA 1: CAATCTGAATTCCGGTCTCCC
DNA 2: TGGTGGCTACGACGGGATT
B4: UACGUUU (DNA:RNA)
RNA: B1 RNA with C26A, A27C, A28G, G29U, G30U, C31U
DNA 1: CAATCTGAATTCCGGTCTCCC
DNA 2: TGGTGGCTACGACGGGATT
B5: CGGUAAC (DNA:RNA)
RNA: B1 RNA with U25C, C26G, A27G, A28U, G29A, G30A
DNA 1: CAATCTGAATTCCGGTCTCCC
DNA 2: TGGTGGCTACGACGGGATT
B6: AUGGCUA (DNA:RNA)
RNA: GGGAGACCGGAAUUCAGAUUGUCCAUGGCUAUUAAAUCCCGUCGUAGCCACCA
DNA 1: CAATCTGAATTCCGGTCTCCC
DNA 2: TGGTGGCTACGACGGGATT
B7: GUUCAAG (DNA:RNA)
RNA: B6 RNA with A25G, G27U, G28C, C29A, U30A, A31G
DNA 1: CAATCTGAATTCCGGTCTCCC
DNA 2: TGGTGGCTACGACGGGATT
B8: AUUCGCC (DNA:RNA)
RNA: B6 RNA with G27U, G28C, C29G, U30C, A31C
DNA 1: CAATCTGAATTCCGGTCTCCC
DNA 2: TGGTGGCTACGACGGGATT
B9: CGUUUUA (DNA:RNA)
RNA: B6 RNA with A25C, U26G, G27U, G28U, C29U
DNA 1: CAATCTGAATTCCGGTCTCCC
DNA 2: TGGTGGCTACGACGGGATT
B10: CGGACUG (DNA:RNA)
RNA: B6 RNA with A25C, U26G, G28A, A31G
DNA 1: CAATCTGAATTCCGGTCTCCC
DNA 2: TGGTGGCTACGACGGGATT
B11: CCGAUAG (DNA:RNA)
RNA: B1 RNA with U25C, A27G, G29U, G30A, C31G
DNA 1: CAATCTGAATTCCGGTCTCCC
DNA 2: TGGTGGCTACGACGGGATT
B12: UUUAACC (DNA:RNA)
RNA: B1 RNA with C26U, A27U, G29A, G30C
DNA 1: CAATCTGAATTCCGGTCTCCC
DNA 2: TGGTGGCTACGACGGGATT
B13: GACUCUU (DNA:RNA)
RNA: B6 RNA with A25G, U26A, G27C, G28U, A31U
DNA 1: CAATCTGAATTCCGGTCTCCC
DNA 2: TGGTGGCTACGACGGGATT
B14: GAGGCUC (DNA:RNA)
RNA: B6 RNA with A25G, U26A, A31C
DNA 1: CAATCTGAATTCCGGTCTCCC
DNA 2: TGGTGGCTACGACGGGATT
B15: CUCCCCC (DNA:RNA)
RNA: B6 RNA with A25C, G27C, G28C, U30C, A31C
DNA 1: CAATCTGAATTCCGGTCTCCC
DNA 2: TGGTGGCTACGACGGGATT
B16: CUUAAGC (DNA:RNA)
RNA: B1 RNA with U25C, C26U, A27U, G29A
DNA 1: CAATCTGAATTCCGGTCTCCC
DNA 2: TGGTGGCTACGACGGGATT
B17: CCCGUCU (DNA:RNA)
RNA: B6 RNA with A25C, U26C, G27C, C29U, U30C, A31U
DNA 1: CAATCTGAATTCCGGTCTCCC
DNA 2: TGGTGGCTACGACGGGATT
B18: GUACACU (DNA:RNA)
RNA: B6 RNA with A25G, G27A, G28C, C29A, U30C, A31U
DNA 1: CAATCTGAATTCCGGTCTCCC
DNA 2: TGGTGGCTACGACGGGATT
B19: UGGAACA (DNA:RNA)
RNA: B6 RNA with A25U, U26G, G28A, C29A, U30C
DNA 1: CAATCTGAATTCCGGTCTCCC
DNA 2: TGGTGGCTACGACGGGATT
B20: UACAAUC (DNA:RNA)
RNA: B1 RNA with C26A, A27C, G29A, G30U
DNA 1: CAATCTGAATTCCGGTCTCCC
DNA 2: TGGTGGCTACGACGGGATT

Residue numbers refer to the chain shown, from its start. Some of the results follow.

The target of the test is T1, RBFOX1 RRM RbFoxmut (Fox-RRM*). The experiment in a line: EMSA; HiTS-Eq, 1 nM pool, 10 min; buffer printed only for the single-RNA assays: 10 mM Tris pH 7.5, 150 mM NaCl, 3.4 mM EDTA, 0.001% NP-40, 30 C. The note with it: tags: His6 N-terminal (pET28a); label: 5' 32P. In outline:
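Purified RbFox RRM (wild type or mutant) was equilibrated for 10 min in 50 µL with 1 nM of a 5′-radiolabelled pool of RNA with 7 randomized nucleotides, its flanks annealed to DNA oligonucleotides, across increasing protein concentrations. Free RNA was separated by 8% native PAGE, excised, reverse-transcribed, PCR-barcoded and sequenced on an Illumina HiSeq 2500. Relative association constants came from read-count changes of each variant against the control reaction, normalised to the cognate motif.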
(In EMSA bound probe runs differently from free probe, usually more slowly.)
Take B1: the binding signal was 0.0863 KA relative to UGCAUGU.
For B2 the value was 0.0509 KA relative to UGCAUGU.
Next, B3: 0.169 KA relative to UGCAUGU.
In the case of B4, the binding signal was 0.106 KA relative to UGCAUGU.
For B5 the value was 0.0625 KA relative to UGCAUGU; for B6, 0.195 KA relative to UGCAUGU; for B7, 0.106 KA relative to UGCAUGU.
B8: the binding signal was 0.118 KA relative to UGCAUGU.
Next, B9: 0.109 KA relative to UGCAUGU.
Regarding B10, the binding signal is 0.353 KA relative to UGCAUGU.
Next, B11: 0.0811 KA relative to UGCAUGU; B12: 0.0651 KA relative to UGCAUGU; B13: 0.0578 KA relative to UGCAUGU.
Regarding B14, the binding signal is 0.0955 KA relative to UGCAUGU.
Next, B15: 0.0382 KA relative to UGCAUGU; B16: 0.0962 KA relative to UGCAUGU.
For B17 the value was 0.079 KA relative to UGCAUGU; for B18, 0.0746 KA relative to UGCAUGU; for B19, 0.123 KA relative to UGCAUGU.
Next, B20: 0.0466 KA relative to UGCAUGU.
